# The full ranking holds about 2,900 compounds; the median of “IRF Lucia reporter activity, fold change vs agonist alone” is about 0.9, and the highest 2% start at about 2.8. Some of the results follow.
# How the values were obtained:
# RAW-Dual [1] = assay: IRF Lucia reporter activity, fold change vs agonist alone; cytotoxicity flag (confluency mask): not cytotoxic; higher = enhanced IRF activity
# Outline: (§1)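 Library stock was pin-tooled at 50 nL into 384-well plates of RAW-Dual macrophages (50,000 cells/well, DMEM), followed 1 h later by a PRR agonist, and the cells were kept at 37 °C, 5% CO2. Supernatant collected after 20 hours was read for IRF by QuantiLuc luminescence and for NF-κB by QuantiBlue absorbance at 620 nm. Reporter activity is fold change over agonist-alone wells, and a well counted as cytotoxic when its IncuCyte confluency was below 70% of agonist controls in both mask sets.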
# RAW-Dual [2] = assay: IRF Lucia reporter activity, fold change vs agonist alone; higher = enhanced IRF activity; conditions: agonist: MPLA (TLR4) […]
# Outline: as §1
# RAW-Dual [3] = assay: IRF Lucia reporter activity, fold change vs agonist alone; cytotoxicity flag (confluency mask): cytotoxic (confluency <70% of control); higher = enhanced IRF activity
# Outline: as §1
# [4] = agonist: 3'3'-cGAMP (STING) 10 ug/mL
# [5] = library stock concentration (final ~1000-fold dilution): 10 mM, cytotoxicity flag (confluency mask): not cytotoxic
smiles,measurement,setting,value
CS(=O)(=O)c1ccc(-c2cnc(N)c(C(=O)Nc3ccccc3)n2)cc1 (library stock concentration (final ~1000-fold dilution): 10 mM),IRF Lucia reporter activity,RAW-Dual [1]; [4],0.0584
same,IRF Lucia reporter activity,RAW-Dual [1]; agonist: LPS (TLR4) 0.1 ug/mL,0.703
CNC(=O)c1ccc(-c2cnc3cnc(-c4ccccc4)cn23)cc1 (library stock concentration (final ~1000-fold dilution): 10 mM),IRF Lucia reporter activity,RAW-Dual [1]; [4],0.101
same,IRF Lucia reporter activity,RAW-Dual [1]; agonist: LPS (TLR4) 0.1 ug/mL,0.598
CC12CCC(=O)C=C1C=CC1C2CCC2(C)C1CCC21CCC(=O)O1 (stereo not drawn) (library stock concentration (final ~1000-fold dilution): 10 mM),IRF Lucia reporter activity,RAW-Dual [1]; [4],1.12
same,IRF Lucia reporter activity,RAW-Dual [1]; agonist: LPS (TLR4) 0.1 ug/mL,1.22
CC12CCC(=O)C=C1C=CC1C2CCC2(C)C1CCC21CCC(=O)O1 (stereo not drawn),IRF Lucia reporter activity,RAW-Dual [2]; [5],1.09
COc1ccc(CCNCc2ccc(OCc3ccc(Cl)nc3)c(OC)c2)cc1OC.Cl (library stock concentration (final ~1000-fold dilution): 10 mM),IRF Lucia reporter activity,RAW-Dual [1]; [4],0.609
same,IRF Lucia reporter activity,RAW-Dual [1]; agonist: LPS (TLR4) 0.1 ug/mL,1.07
CC(C)N(CCCNC(=O)Nc1ccc(C(C)(C)C)cc1)CC1OC(n2ccc3c(N)ncnc32)C(O)C1O (stereo not drawn) (library stock concentration (final ~1000-fold dilution): 10 mM),IRF Lucia reporter activity,RAW-Dual [1]; [4],0.89
same,IRF Lucia reporter activity,RAW-Dual [1]; agonist: LPS (TLR4) 0.1 ug/mL,1.1
CC(C)N(CCCNC(=O)Nc1ccc(C(C)(C)C)cc1)CC1OC(n2ccc3c(N)ncnc32)C(O)C1O (stereo not drawn),IRF Lucia reporter activity,RAW-Dual [2]; [5],1.01
O=C(O)CCCCC(CCSCc1ccccc1)SCc1ccccc1 (stereo not drawn) (library stock concentration (final ~1000-fold dilution): 10 mM),IRF Lucia reporter activity,RAW-Dual [1]; [4],1.22
same,IRF Lucia reporter activity,RAW-Dual [1]; agonist: LPS (TLR4) 0.1 ug/mL,1.12
O=C(O)CCCCC(CCSCc1ccccc1)SCc1ccccc1 (stereo not drawn),IRF Lucia reporter activity,RAW-Dual [2]; [5],1.13
CN1c2ccccc2C(=O)Nc2cnc(Nc3ccc(N4CCC(O)CC4)cc3)nc21 (library stock concentration (final ~1000-fold dilution): 10 mM),IRF Lucia reporter activity,RAW-Dual [1]; [4],0.137
same,IRF Lucia reporter activity,RAW-Dual [1]; agonist: LPS (TLR4) 0.1 ug/mL,0.438
C=C(Cc1ccccc1Cl)C(=O)OCC (library stock concentration (final ~1000-fold dilution): 10 mM),IRF Lucia reporter activity,RAW-Dual [3]; [4],0.845
same,IRF Lucia reporter activity,RAW-Dual [3]; agonist: LPS (TLR4) 0.1 ug/mL,0.808
CC12CC(O)C3CC1(OC1OC(CO)C(O)C(O)C1O)C3(COC(=O)c1ccccc1)C(=O)O2 (stereo not drawn) (library stock concentration (final ~1000-fold dilution): 10 mM),IRF Lucia reporter activity,RAW-Dual [1]; [4],0.978
same,IRF Lucia reporter activity,RAW-Dual [1]; agonist: LPS (TLR4) 0.1 ug/mL,1.12
CC12CCC3C(CCC4C(C)(C(=O)O)CCCC34C)(CC1=O)C2 (stereo not drawn) (library stock concentration (final ~1000-fold dilution): 10 mM),IRF Lucia reporter activity,RAW-Dual [1]; [4],1.08
same,IRF Lucia reporter activity,RAW-Dual [1]; agonist: LPS (TLR4) 0.1 ug/mL,1.5
CC(C)(C)c1nc(-c2cccc(NS(=O)(=O)c3c(F)cccc3F)c2F)c(-c2ccnc(N)n2)s1 (library stock concentration (final ~1000-fold dilution): 10 mM),IRF Lucia reporter activity,RAW-Dual [3]; [4],0.65
same,IRF Lucia reporter activity,RAW-Dual [3]; agonist: LPS (TLR4) 0.1 ug/mL,0.5
CC(C)(C)c1nc(-c2cccc(NS(=O)(=O)c3c(F)cccc3F)c2F)c(-c2ccnc(N)n2)s1,IRF Lucia reporter activity,"RAW-Dual [2]; library stock concentration (final ~1000-fold dilution): 10 mM, cytotoxicity flag (confluency mask): cytotoxic (confluency <70% of control)",0.404
Cc1c(C(=O)Nc2ccc(N3CCC(N4CCOCC4)CC3)c(C#N)c2)cnn1-c1ccc(Cl)cc1 (library stock concentration (final ~1000-fold dilution): 10 mM),IRF Lucia reporter activity,RAW-Dual [1]; [4],0.0482
same,IRF Lucia reporter activity,RAW-Dual [1]; agonist: LPS (TLR4) 0.1 ug/mL,0.734
Cc1c(C(=O)Nc2ccc(N3CCC(N4CCOCC4)CC3)c(C#N)c2)cnn1-c1ccc(Cl)cc1,IRF Lucia reporter activity,RAW-Dual [2]; [5],0.726
Cc1cc(Nc2cc(N)ncn2)c(=O)n2c1C(=O)NC21CCCCC1 (library stock concentration (final ~1000-fold dilution): 10 mM),IRF Lucia reporter activity,RAW-Dual [1]; [4],0.431
same,IRF Lucia reporter activity,RAW-Dual [1]; agonist: LPS (TLR4) 0.1 ug/mL,0.482
Cc1noc(C)c1-c1cnc2c(-c3ccc(C(=O)O)cc3)cn(C(C)c3ccccn3)c2c1 (stereo not drawn) (library stock concentration (final ~1000-fold dilution): 10 mM),IRF Lucia reporter activity,RAW-Dual [1]; [4],0.288
same,IRF Lucia reporter activity,RAW-Dual [1]; agonist: LPS (TLR4) 0.1 ug/mL,0.123
Nc1c(CC(=O)O)cccc1C(=O)c1ccc(Br)cc1 (library stock concentration (final ~1000-fold dilution): 10 mM),IRF Lucia reporter activity,RAW-Dual [1]; [4],1.1
same,IRF Lucia reporter activity,RAW-Dual [1]; agonist: LPS (TLR4) 0.1 ug/mL,0.906
Nc1c(CC(=O)O)cccc1C(=O)c1ccc(Br)cc1,IRF Lucia reporter activity,RAW-Dual [2]; [5],1.11
Cn1nccc1Nc1nccc(-c2cc3c(s2)C(C)(C)N(CCN2CCOCC2)C3=O)n1 (library stock concentration (final ~1000-fold dilution): 10 mM),IRF Lucia reporter activity,RAW-Dual [1]; [4],0.34
same,IRF Lucia reporter activity,RAW-Dual [1]; agonist: LPS (TLR4) 0.1 ug/mL,1.61
Cl.N=C(N)NC(=O)c1nc(Cl)c(N)nc1N.O.O (library stock concentration (final ~1000-fold dilution): 10 mM water),IRF Lucia reporter activity,RAW-Dual [1]; [4],1.46
same,IRF Lucia reporter activity,RAW-Dual [1]; agonist: LPS (TLR4) 0.1 ug/mL,0.86
Cl.N=C(N)NC(=O)c1nc(Cl)c(N)nc1N.O.O,IRF Lucia reporter activity,"RAW-Dual [2]; library stock concentration (final ~1000-fold dilution): 10 mM water, cytotoxicity flag (confluency mask): not cytotoxic",1.41
COc1cc2c(cc1OCCCN1CCCC1)N=C(N)C21CCC1,IRF Lucia reporter activity,RAW-Dual [2]; [5],1.05
COc1cc2c(cc1OCCCN1CCCC1)N=C(N)C21CCC1 (library stock concentration (final ~1000-fold dilution): 10 mM),IRF Lucia reporter activity,RAW-Dual [1]; [4],1.23
same,IRF Lucia reporter activity,RAW-Dual [1]; agonist: LPS (TLR4) 0.1 ug/mL,1.01
CC(=O)Oc1cc(C(C)C)c(OCCN(C)C)cc1C.Cl (library stock concentration (final ~1000-fold dilution): 10 mM),IRF Lucia reporter activity,RAW-Dual [1]; [4],0.96
same,IRF Lucia reporter activity,RAW-Dual [1]; agonist: LPS (TLR4) 0.1 ug/mL,1.09
CC(=O)Oc1cc(C(C)C)c(OCCN(C)C)cc1C.Cl,IRF Lucia reporter activity,RAW-Dual [2]; [5],1.14
CCN(CC)C(=O)/C(C#N)=C/c1cc(O)c(O)c([N+](=O)[O-])c1,IRF Lucia reporter activity,RAW-Dual [2]; [5],0.926
CCN(CC)C(=O)/C(C#N)=C/c1cc(O)c(O)c([N+](=O)[O-])c1 (library stock concentration (final ~1000-fold dilution): 10 mM),IRF Lucia reporter activity,RAW-Dual [1]; [4],1.01
same,IRF Lucia reporter activity,RAW-Dual [1]; agonist: LPS (TLR4) 0.1 ug/mL,0.843
Cc1cc(F)c(Nc2ncnc3cc(OCc4ccccc4)ccc23)cc1O.Cl (library stock concentration (final ~1000-fold dilution): 10 mM),IRF Lucia reporter activity,RAW-Dual [1]; [4],0.0598
same,IRF Lucia reporter activity,RAW-Dual [1]; agonist: LPS (TLR4) 0.1 ug/mL,0.95
Cc1cc(F)c(Nc2ncnc3cc(OCc4ccccc4)ccc23)cc1O.Cl,IRF Lucia reporter activity,RAW-Dual [2]; [5],0.891
COc1ccc(NC(=O)c2ccc(C(=N)N(C)C)cc2)c(C(=O)Nc2ccc(Cl)cn2)c1,IRF Lucia reporter activity,RAW-Dual [2]; [5],1.07
COc1ccc(NC(=O)c2ccc(C(=N)N(C)C)cc2)c(C(=O)Nc2ccc(Cl)cn2)c1 (library stock concentration (final ~1000-fold dilution): 10 mM),IRF Lucia reporter activity,RAW-Dual [1]; [4],0.865
same,IRF Lucia reporter activity,RAW-Dual [1]; agonist: LPS (TLR4) 0.1 ug/mL,1.15
CCS(=O)(=O)N1CCC(C(C)n2c(C)c(C(=O)NCc3c(OC)cc(C)[nH]c3=O)c3ccccc32)CC1 (stereo not drawn) (library stock concentration (final ~1000-fold dilution): 10 mM),IRF Lucia reporter activity,RAW-Dual [1]; [4],1.15
same,IRF Lucia reporter activity,RAW-Dual [1]; agonist: LPS (TLR4) 0.1 ug/mL,1.12
